# Measured values from PubChem BioAssay AID1745853 (National Center for Advancing Translational Sciences (NCATS), 2022).
# The other results are listed elsewhere or left out. Shown are side measurements of this screen, not its main read-out; they come without a call.
# How the values were obtained:
# Test in all cases: Primary Screen for Target Class Profiling of Small Molecule Inhibitors of Methyltransferases
# [1] = biological target: Glycine N-methyltransferase (Homo sapiens) (UniProt Q14749); conditions: purified enzyme, MTase-Glo SAH luminescence; measured here: GNMT inhibition; at 40 µM; stronger effect = lower value
# Outline: (§1)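 Each enzyme was assayed with SAM and its substrate. SAH formation detected by MTase-Glo luminescence; single-point 40 uM screen[…].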
# [2] = biological target: Guanidinoacetate N-methyltransferase (Homo sapiens) (UniProt Q14353); conditions: purified enzyme, MTase-Glo SAH luminescence; measured here: GAMT inhibition; at 40 µM; stronger effect = lower value
# Outline: as §1
# [3] = biological target: Histamine N-methyltransferase (Homo sapiens) (UniProt P50135); conditions: purified enzyme, MTase-Glo SAH luminescence; measured here: HNMT inhibition; at 40 µM; stronger effect = lower value
# Outline: as §1
# [4] = biological target: Nicotinamide N-methyltransferase (Homo sapiens) (UniProt P40261); conditions: purified enzyme, MTase-Glo SAH luminescence; measured here: NNMT inhibition; at 40 µM; stronger effect = lower value
# Outline: as §1
# [5] = biological target: Phenylethanolamine N-methyltransferase (Homo sapiens) (UniProt P11086); conditions: purified enzyme, MTase-Glo SAH luminescence; measured here: PNMT inhibition; at 40 µM; stronger effect = lower value
# Outline: as §1
# On the % scale 0 is the no-effect control and ±100 the full control effect.
Structure (SMILES),"activity change, negative = inhibition [1]","activity change, negative = inhibition [2]","activity change, negative = inhibition [3]","activity change, negative = inhibition [4]","activity change, negative = inhibition [5]"
COc1ccc(OCc2cc(C(=O)NC(CO)C(C)C)no2)c2ccccc12 (stereo not drawn),-50.1%,-27.9%,-2.6%,-9.93%,-63.2%
COc1ccc(Cl)cc1C(=O)N1CC(F)(F)C[C@H]1c1nc(C)no1,-2.85%,-3.66%,-1.87%,-8.55%,-5.1%
CCCNC(=O)[C@@H]1Cc2cn(Cc3nccn3C)c3cccc(c23)[C@H](CC(C)C)N1,-14.7%,-7.48%,-6.04%,-23%,-23.4%
Cc1ccc(CN2CC[C@H](c3nc4ccc(C)cc4[nH]3)C2)cc1,-11.2%,-6.1%,-29%,-26.2%,-20.7%
O=C(NCc1nc2ccccc2c(=O)n1-c1ccc(F)cc1)Nc1ccc(Cl)c(C(F)(F)F)c1,-2.13%,-33.9%,-6.85%,-49.4%,-27%
CC(=O)Nc1c2n(c3ccccc13)CC(C)(C(=O)NC1CCCCC1)N(C1CCCCCC1)C2=O (stereo not drawn),4.27%,0%,7.04%,-0.789%,4.46%
Cc1ccc(C)c(Cn2nc3n(C(C)C)c(=O)c4ccc(C(=O)NCC(C)C)cc4n3c2=O)c1,1.19%,0%,4.22%,0.37%,0.03%
Cc1ccc(NC(=O)Cn2nc3n(CC(C)C)c(=O)c4ccc(C(=O)NC(C)C)cc4n3c2=O)cc1F,5.32%,0%,10%,4.54%,4.14%
C/C=C(\C)C(=O)O[C@H]1[C@@H](O[C@]2(COC(=O)CC(C)C)O[C@H](COC(=O)C(C)C)[C@@H](OC(C)=O)[C@@H]2O)O[C@H](COC(C)=O)[C@@H](O)[C@@H]1O,0%,-4.29%,-4.03%,-17.1%,-1.95%
CCN1C(=O)CCc2cc(NC(=O)c3ccn(CC)n3)ccc21,-11.9%,-10.8%,-8.03%,-20.5%,-15.6%
COC1CCN(c2cc(-c3ccsc3)nc3c(C)noc23)CC1,-24.4%,-16.8%,-21.6%,-51%,-10.4%
CC(C)N1CCCC2(CCN(C(=O)c3cc(C#N)cn3C)C2)C1=O (stereo not drawn),2.46%,-0.156%,-0.464%,1.01%,2.91%
C[C@H]1[C@H](C)CC[C@]2(C(=O)O)CC[C@]3(C(=O)O)C(=CCC4[C@@]5(C)CC[C@H](O[C@@H]6O[C@@H](C)[C@H](O)[C@@H](O)[C@H]6O)C(C)(C)C5CC[C@]43C)[C@H]12 (stereo partly drawn),-0.445%,0.013%,6.13%,-11%,1.18%
CC1CCC(NC(=O)C2(C)Cn3c(cc4occc43)C(=O)N2CCCc2ccccc2)CC1 (stereo not drawn),-4.88%,0%,5.86%,1.1%,-0.66%
COc1ccc(-c2cc3n(n2)CC(C)(C(=O)NCc2ccccc2OC)N(CCc2ccccc2)C3=O)cc1 (stereo not drawn),0.49%,2.83%,-2.96%,-0.996%,-5.73%
Cc1nc(C2CC23CCN(C(=O)Nc2ccccc2F)CC3)no1 (stereo not drawn),-0.082%,-5.47%,-0.041%,-6.85%,2.71%
CN1CCN(C(=O)c2cc(-c3ccsc3)nc3c2cnn3C)CC1,-10.9%,-8.09%,-6.38%,-13.7%,-11.1%
COc1cccc([S+](=O)([O-])N2CCN(CCn3nc4n(c3=O)CCCC4)CC2)c1,-0.602%,1.54%,2.97%,-6.1%,-14.9%

Structure (SMILES),"activity change, negative = inhibition [1]","activity change, negative = inhibition [2]","activity change, negative = inhibition [3]","activity change, negative = inhibition [4]","activity change, negative = inhibition [5]"
Cc1nc2c3ccccc3n3c(CCCC(=O)NCCCN(C)Cc4ccccc4)nnc3n2n1,-12.7%,5.82%,-31%,0.78%,-2.9%
CN1CCN(c2ccc(-c3noc([C@@H]4CCCN4Cc4ccccc4)n3)cn2)CC1,-3.95%,-3.68%,-12.1%,-8.18%,-0.487%
COc1ccc(C(=O)N2CCC(N3C(=O)[C@H](OC)[C@@H]3c3ccncc3)CC2)c(OC)c1,-6.69%,-5.72%,-3.19%,-12.2%,-8.71%
CCOc1cccc(C2c3cccn3-c3sc4c(c3CN2C(=O)NCCC(=O)OC)CCCC4)c1 (stereo not drawn),-5.85%,0.717%,-2.67%,-15.7%,2.07%
COc1cc(COC2OC(CO)C(O)C(O)C2O)cc(OC)c1O (stereo not drawn),0%,4.8%,1.96%,-6.74%,4.5%
C[C@@H]1C[C@@H](O)[C@@]23CO[C@@H](O)[C@@H]2CCC[C@@H]3[C@@]12C[C@@H](c1ccoc1)OC2=O,0%,3.63%,7.66%,-7.45%,3.31%
O=C(c1cc(-c2ccccc2)n[nH]1)N1CCc2c(nc(-c3ccccc3)[nH]c2=O)C1,-72.9%,-1.45%,-5.06%,-11.3%,6.53%
CN1CCCCCCN(C(=O)c2cnccn2)[C@H]2CCC[C@H]2C1=O,1.92%,3.1%,2.65%,-3.57%,13.2%
COc1ccccc1CN1C(=O)c2ccc(-c3ccccc3)n2CC1(C)C(=O)NC1CCC(C)CC1 (stereo not drawn),4.63%,0.546%,3.42%,0.245%,0.422%
c1ccc(COC2CCN(c3nccc(-c4cccnc4)n3)CC2)nc1,-11.2%,-8.46%,-8.32%,-19.5%,-4.13%
COCCCNc1nc2c(-c3cccc(Br)c3)nnn2c2ccccc12,-2.57%,0.777%,-0.752%,3.55%,-3.7%
O=C(Nc1cccc(Cl)c1)N1Cc2c(sc3c2CCCC3)-n2cccc2C1c1cccc(F)c1 (stereo not drawn),-6.97%,4.76%,-4.38%,-2.29%,-3.73%
CC[C@@]1(O)CC2CN(CCc3c([nH]c4ccccc34)[C@](C(=O)OC)(c3cc4c(cc3OC)N(C)C3[C@@](O)(C(N)=O)[C@H](O)[C@]5(CC)C=CCN6CC[C@@]43[C@@H]65)C2)C1 (stereo partly drawn),–,12.5%,–,-11.5%,-4.18%
Cn1cc(CNC(=O)c2ccc(OC3CCN(S(C)(=O)=O)CC3)c(Cl)c2)cn1,-5.52%,-8.08%,-0.83%,-9.54%,-19.6%
O=C(OC[C@H]1O[C@H](O[C@H]2CO[C@H](CO)[C@@H](O)[C@@H]2O)[C@H](O)[C@@H](O)[C@H]1O)c1ccccc1,2.08%,5.27%,2.93%,-6.74%,7.08%
CC(C)NC(=O)c1ccc2c(=O)n(C(C)C)c3nn(Cc4ccccc4)c(=O)n3c2c1,-3.48%,5.34%,0.317%,-3.38%,2.76%
COCC(=O)N(C)Cc1ccc(F)cc1,-3.3%,-1.38%,1.43%,-0.532%,-0.835%
CC(C)OCCCN1C(=O)c2ccc(-c3ccco3)n2CC1(C)C(=O)NC1CCCCCCC1 (stereo not drawn),-9.2%,-3.46%,-3.1%,-19.3%,-6.33%
